In one assay the target is T1, MSA (UniProt P07724 25-608).
T1 construct: Identity as mouse serum albumin is an inference from the abbreviation
The assay is described as follows: SPR (Biacore T100), albumin immobilised, Nanobody injected. On the procedure: Kinetic analysis of the Nanobodies was performed by SPR technology, using the Biacore T100 instrument (GE Healthcare). […] After immobilization, surfaces were deactivated with 1M ethanolamine/HCl (pH 8.5). The flow rate during the sensor preparation was set on 5 μl/min.
Sensorgram processing and data analysis was performed with Biacore T100 Evaluation Software Version 2.0.4 (GE Healthcare). […] Processed curves were evaluated via fitting with the model ‘Langmuir with Mass Transport’.
On the technique in general: Surface plasmon resonance follows binding to a sensor surface in real time, without labels.

In another assay the target is T2, human LAG-3-hFc (human, UniProt P18627 23-450).
T2 construct: also called human LAG3-Fc; Human LAG-3-Fc; not shown: human Fc (hFc)
T2 sequence: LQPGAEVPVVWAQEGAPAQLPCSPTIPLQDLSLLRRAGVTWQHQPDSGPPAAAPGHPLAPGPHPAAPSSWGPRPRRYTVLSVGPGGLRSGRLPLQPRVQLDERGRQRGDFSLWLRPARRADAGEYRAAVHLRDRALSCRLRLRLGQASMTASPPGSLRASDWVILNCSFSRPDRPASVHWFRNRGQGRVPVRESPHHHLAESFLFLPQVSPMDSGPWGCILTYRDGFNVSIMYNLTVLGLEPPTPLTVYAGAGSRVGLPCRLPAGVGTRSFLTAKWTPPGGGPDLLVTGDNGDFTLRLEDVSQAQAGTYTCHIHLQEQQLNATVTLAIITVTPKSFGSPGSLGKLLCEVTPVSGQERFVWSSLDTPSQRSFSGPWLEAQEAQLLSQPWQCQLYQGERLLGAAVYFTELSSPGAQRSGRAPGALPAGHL
The assay can be described thus: flow cytometry, blockade of human LAG-3-hFc binding to Daudi cells. On the procedure:
A Nanobody dilution series was prepared in assay buffer: HBSS/2% FBS. Prior to the experiment, Fc receptors on the Daudi cells were blocked with human Fc block (BD Pharmingen, 564220) and 5 μg/mL goat IgG (Jackson ImmunoResearch, 005-000-003) for 30 minutes at 4° C. […] 1×10⁵ cells/well were seeded in V-bottom 96-well plates and resuspended in 100 μL/well of the Nanobody/ligand dilution. After 30 minutes incubation at 4° C., the cells were washed and resuspended in 100 μL/well PE-labeled Goat anti-human IgG (Southern Biotech, 2043-09). Samples were incubated for 15 minutes at 4° C., washed, and resuspended in 100 μL/well of 5 nM TOPRO3 (LifeTechnologies, T3606) solution before analysis on FACS CANTO II (BD).
A general note: In flow cytometry, cells or beads pass a laser one at a time.

Assay [1] has as its target T3, human LAG-3 expressed on cells (human, UniProt P18627 23-525).
T3 construct: also called hLAG-3; 3A9.hLAG-3
T3 sequence: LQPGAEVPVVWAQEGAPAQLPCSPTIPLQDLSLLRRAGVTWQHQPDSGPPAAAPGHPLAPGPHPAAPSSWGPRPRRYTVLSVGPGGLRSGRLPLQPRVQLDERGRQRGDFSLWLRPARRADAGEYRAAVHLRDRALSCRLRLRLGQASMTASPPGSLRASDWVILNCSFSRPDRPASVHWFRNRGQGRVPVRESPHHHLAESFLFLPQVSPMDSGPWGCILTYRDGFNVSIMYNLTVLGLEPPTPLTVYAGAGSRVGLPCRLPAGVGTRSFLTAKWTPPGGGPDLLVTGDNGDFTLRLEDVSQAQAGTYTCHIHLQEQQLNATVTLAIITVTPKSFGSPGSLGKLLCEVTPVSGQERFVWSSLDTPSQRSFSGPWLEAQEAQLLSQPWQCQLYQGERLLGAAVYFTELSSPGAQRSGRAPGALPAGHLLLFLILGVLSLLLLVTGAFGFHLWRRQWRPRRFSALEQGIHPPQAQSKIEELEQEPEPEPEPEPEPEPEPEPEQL
The assay can be described thus: flow cytometry on CHO cells over-expressing human LAG-3.

Assay [2] concerns the target T4, LAG3(1-477)-EA expressed in U2OS cells (human, UniProt P18627 23-477).
T4 construct: Range 1-477 is printed without naming an entry; Expressed in the cell membrane; also called extracellular domain of LAG-3 (1-477) fused to the EA subunit; U2OS.LAG3(1-477)-EA.PD1(1-199)-PK; not shown: enzyme acceptor (EA) beta-galactosidase fragment
T4 sequence: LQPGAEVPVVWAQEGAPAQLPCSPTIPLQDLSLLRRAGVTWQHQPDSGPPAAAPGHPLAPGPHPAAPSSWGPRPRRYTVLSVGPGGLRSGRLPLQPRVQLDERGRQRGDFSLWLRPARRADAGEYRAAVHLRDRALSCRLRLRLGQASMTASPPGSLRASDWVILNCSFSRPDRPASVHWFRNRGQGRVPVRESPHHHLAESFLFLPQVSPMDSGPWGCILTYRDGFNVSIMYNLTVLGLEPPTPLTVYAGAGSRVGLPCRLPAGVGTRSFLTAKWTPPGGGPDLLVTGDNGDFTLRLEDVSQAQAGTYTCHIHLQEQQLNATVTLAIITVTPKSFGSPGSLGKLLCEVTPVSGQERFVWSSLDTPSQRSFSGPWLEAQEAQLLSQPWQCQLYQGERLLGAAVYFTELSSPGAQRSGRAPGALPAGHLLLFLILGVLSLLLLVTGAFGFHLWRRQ
The assay can be described thus: proximity dimerization assay (beta-galactosidase enzyme fragment complementation) in U2OS cells.

The target of assay [3] is T5, PD1(1-199)-PK expressed in U2OS cells (human, UniProt Q15116 fragment).
T5 construct: Range 1-199 is printed without naming an entry; Expressed in the cell membrane; also called extracellular domain of PD-1 (1-199) fused to the PK subunit; U2OS.LAG3(1-477)-EA.PD1(1-199)-PK; not shown: ProLink (PK) beta-galactosidase fragment tag
The assay is described as above.

As a reminder, the koff is the first-order rate constant of dissociation. Low values mean slow dissociation, high ones fast dissociation. By kon is commonly meant the rate constant with which the complex forms. The low end stands for slow association, the high end for fast association.

T5 sequence (Q15116 25-199): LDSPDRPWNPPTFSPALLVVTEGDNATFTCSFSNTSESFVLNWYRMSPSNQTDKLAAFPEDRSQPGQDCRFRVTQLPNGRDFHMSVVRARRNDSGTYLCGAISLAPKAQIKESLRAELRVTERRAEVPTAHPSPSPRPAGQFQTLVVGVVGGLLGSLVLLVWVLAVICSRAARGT

B1: F023700924 (1PD102C12 (E1D, L11V, A14P, A74S, K83R, I89L)-35GS-F0237611B09 (L11V, A14P, R41P, N43K, A62S, A74S, K83R, V89L)-35GS-ALB11002-A) (bispecific antibody)
chain: DVQLVESGGGVVQPGGSLRLSCAASGSIASIHAMGWFRQAPGKEREFVAVITWSGGITYYADSVKGRFTISRDNSKNTVYLQMNSLRPEDTALYYCAGDKHQSSWYDYWGQGTLVTVSSGGGGSGGGGSGGGGSGGGGSGGGGSGGGGSGGGGSEVQLVESGGGVVQPGGSLRLSCAASGRTFSDYVMGWFRQAPGKEREFVAAISESGGRTHYADSVKGRFTISRDNSKNTLYLQMNSLRPEDTALYYCATTLLWWTSEYAPIKANDYDYWGQGTLVTVSSGGGGSGGGGSGGGGSGGGGSGGGGSGGGGSGGGGS[about 120 residues not spelt out]
notes: Pichia- and CHO-expressed lots tested; also called F023700924-CHO-EXP1; Trimer
In the assay with MSA, B1 showed a koff of less than 0.6 s⁻¹. In the assay with MSA, this molecule displayed a kon of more than 500000 M⁻¹ s⁻¹. For the same molecule, the binding result (with human LAG-3-hFc; in assay [1]; in assay [2]; in assay [3]) was “binds” throughout.

B2: F023700970 (102C12 (E1D, L11V, A14P, A74S, K83R, I89L)-9GS-F0237611B09 (L11V, A14P, R41P, N43K, A62S, A74S, K83R, V89L)-9GS-ALB11002-A) (bispecific antibody)
chain: DVQLVESGGGVVQPGGSLRLSCAASGSIASIHAMGWFRQAPGKEREFVAVITWSGGITYYADSVKGRFTISRDNSKNTVYLQMNSLRPEDTALYYCAGDKHQSSWYDYWGQGTLVTVSSGGGGSGGGSEVQLVESGGGVVQPGGSLRLSCAASGRTFSDYVMGWFRQAPGKEREFVAAISESGGRTHYADSVKGRFTISRDNSKNTLYLQMNSLRPEDTALYYCATTLLWWTSEYAPIKANDYDYWGQGTLVTVSSGGGGSGGGS[about 120 residues not spelt out]
notes: 9GS-linker version of F023700924
As for B2, the binding result in assay [2] and in assay [3] was “binds” throughout.

B3: F023700969 (102C12 (E1D, L11V, A14P, A74S, K83R, I89L)-20GS-F0237611B09 (L11V, A14P, R41P, N43K, A62S, A74S, K83R, V89L)-20GS-ALB11002-A) (bispecific antibody)
chain: DVQLVESGGGVVQPGGSLRLSCAASGSIASIHAMGWFRQAPGKEREFVAVITWSGGITYYADSVKGRFTISRDNSKNTVYLQMNSLRPEDTALYYCAGDKHQSSWYDYWGQGTLVTVSSGGGGSGGGGSGGGGSGGGGSEVQLVESGGGVVQPGGSLRLSCAASGRTFSDYVMGWFRQAPGKEREFVAAISESGGRTHYADSVKGRFTISRDNSKNTLYLQMNSLRPEDTALYYCATTLLWWTSEYAPIKANDYDYWGQGTLVTVSSGGGGSGGGGSGGGGSGGGGS[about 120 residues not spelt out]
notes: 20GS-linker version of F023700924
For B3, the binding result in assay [2] and in assay [3] was “binds” each time.

B4: F023700931 (1PD102C12 (E1D, L11V, A14P, A74S, K83R, I89L)-35GS-1PD102C12 (L11V, A14P, A74S, K83R, I89L)-35GS-F0237611B09 (L11V, A14P, R41P, N43K, A62S, A74S, … (bispecific antibody)
chain: DVQLVESGGGVVQPGGSLRLSCAASGSIASIHAMGWFRQAPGKEREFVAVITWSGGITYYADSVKGRFTISRDNSKNTVYLQMNSLRPEDTALYYCAGDKHQSSWYDYWGQGTLVTVSSGGGGSGGGGSGGGGSGGGGSGGGGSGGGGSGGGGSEVQLVESGGGVVQPGGSLRLSCAASGSIASIHAMGWFRQAPGKEREFVAVITWSGGITYYADSVKGRFTISRDNSKNTVYLQMNSLRPEDTALYYCAGDKHQSSWYDYWGQGTLVTVSSGGGGSGGGGSGGGGSGGGGSGGGGSGGGGSGGGGSEVQLVESGGGVVQPGGSLRLSCAASGRTFSDYVMGWFRQAPGKEREFVAAISESGGRTHYADSVKGRFTISRDNSKNTLYLQMNSLRPEDTALYYCATTLLWWTSEYAPIKANDYDYWGQGTLVTVSSGGGGSGGGGSGGGGSGGGGSGGGGSGGGGSGGGGSEVQLVESGGGVVQPGGSLRLSCAASGRTFSDYVMGWFRQAPGKEREFVAAISESGGRTHYADSVKGRFTISRDNSKNTLYLQMNSLRPEDTALYYCATTLLWWTSEYAPIKANDYDYWGQGTLVTVSSGGGGSGGGGSGGGGSGGGGSGGGGSGGGGSGGGGS[about 120 residues not spelt out]
notes: Pichia- and CHO-expressed lots tested; also called F023700931-CHO-EXP1; Pentamer
In the assay with MSA, B4 had a koff of less than 0.6 s⁻¹ and a kon of more than 500000 M⁻¹ s⁻¹. Moreover, in the assay with human LAG-3-hFc, the binding result is listed as “binds”. The binding result in assay [1] was “binds”.

The values above are taken from US20220041727A1 (published 2022).
